Experimental findings from PMC6750928 are described below.

By UniProt entry, the sequences of proteins in these tests, tags left out. Residues count along the entry.
UniProt Q03431, residues 29-593: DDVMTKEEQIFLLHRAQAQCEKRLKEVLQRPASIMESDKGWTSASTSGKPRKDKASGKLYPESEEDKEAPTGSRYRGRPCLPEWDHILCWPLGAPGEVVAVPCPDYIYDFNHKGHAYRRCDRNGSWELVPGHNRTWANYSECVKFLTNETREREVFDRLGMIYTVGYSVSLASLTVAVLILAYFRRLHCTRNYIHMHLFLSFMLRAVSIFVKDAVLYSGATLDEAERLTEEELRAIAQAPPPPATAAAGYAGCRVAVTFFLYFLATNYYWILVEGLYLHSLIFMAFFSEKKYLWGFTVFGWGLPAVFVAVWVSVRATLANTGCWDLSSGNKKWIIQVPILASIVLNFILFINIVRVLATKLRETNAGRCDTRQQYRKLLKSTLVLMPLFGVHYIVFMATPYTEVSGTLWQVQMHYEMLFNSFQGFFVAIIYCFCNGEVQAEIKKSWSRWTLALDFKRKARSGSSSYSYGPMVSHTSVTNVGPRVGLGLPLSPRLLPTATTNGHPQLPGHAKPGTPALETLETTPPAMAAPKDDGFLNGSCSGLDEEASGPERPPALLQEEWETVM
UniProt O60895, residues 43-175: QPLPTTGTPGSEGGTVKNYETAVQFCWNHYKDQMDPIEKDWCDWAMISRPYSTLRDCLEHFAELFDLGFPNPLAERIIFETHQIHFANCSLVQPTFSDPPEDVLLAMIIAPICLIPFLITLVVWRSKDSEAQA

These are yes or no findings as the source states them, for the method shown. Binding seen in cells or lysates may run through a third protein. Some entries that bind do so weakly or less than the wild type.

The target in the experiment is Parathyroid hormone receptor 1 (human) (UniProt Q03431). Kind of experiment: proximity ligation; HEK293T cells cotransfected with HA-tagged GPCR and FLAG-tagged RAMP2, fixed with methanol (or formaldehyde), rabbit anti-HA and mouse anti-FLAG primary Abs, DuoLink In Situ Red; PLA puncta per cell.

In the case of “Receptor activity-modifying protein 2 (from UniProt O60895 43-175)”, the binding entry is given as “binds”.
